Results are given in words; binding and its absence hold for the method and conditions named. Binding seen in cells or lysates may run through a third protein. Some binding calls cover weakened binding; strength is not graded here. Sequences can lack the tags named with a protein.

Protein sequences, listed by entry. Tags and fused reporters are not part of them. Lines headed by an entry give the natural chain unless they say otherwise; changes in a name come on top. Chains listed by the source or under a name are the forms on record and can include a tag or linker. Residues count along the entry.
UniProt Q14694: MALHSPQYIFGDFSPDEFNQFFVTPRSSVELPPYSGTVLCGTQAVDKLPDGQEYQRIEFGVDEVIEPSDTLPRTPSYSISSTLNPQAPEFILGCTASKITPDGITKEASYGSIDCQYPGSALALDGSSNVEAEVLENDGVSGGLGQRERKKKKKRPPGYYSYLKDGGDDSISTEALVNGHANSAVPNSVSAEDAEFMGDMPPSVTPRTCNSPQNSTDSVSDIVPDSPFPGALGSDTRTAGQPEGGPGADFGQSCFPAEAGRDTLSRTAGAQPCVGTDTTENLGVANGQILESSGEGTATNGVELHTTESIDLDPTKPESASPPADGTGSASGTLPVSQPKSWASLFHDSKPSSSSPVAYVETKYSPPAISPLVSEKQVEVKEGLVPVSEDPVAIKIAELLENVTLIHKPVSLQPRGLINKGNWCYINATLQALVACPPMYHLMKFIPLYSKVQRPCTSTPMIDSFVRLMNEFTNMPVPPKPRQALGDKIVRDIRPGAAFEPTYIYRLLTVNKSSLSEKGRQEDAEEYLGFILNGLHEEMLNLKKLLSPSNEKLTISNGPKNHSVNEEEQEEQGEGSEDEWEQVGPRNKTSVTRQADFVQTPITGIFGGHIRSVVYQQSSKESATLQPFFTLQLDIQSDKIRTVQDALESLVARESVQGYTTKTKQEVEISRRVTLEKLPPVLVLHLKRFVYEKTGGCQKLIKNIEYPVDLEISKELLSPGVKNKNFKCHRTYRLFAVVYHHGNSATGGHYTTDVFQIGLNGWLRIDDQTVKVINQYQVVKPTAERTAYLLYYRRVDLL
GST-tagged USP10 400–798: residues 400-798 of Q14694
UniProt Q93009: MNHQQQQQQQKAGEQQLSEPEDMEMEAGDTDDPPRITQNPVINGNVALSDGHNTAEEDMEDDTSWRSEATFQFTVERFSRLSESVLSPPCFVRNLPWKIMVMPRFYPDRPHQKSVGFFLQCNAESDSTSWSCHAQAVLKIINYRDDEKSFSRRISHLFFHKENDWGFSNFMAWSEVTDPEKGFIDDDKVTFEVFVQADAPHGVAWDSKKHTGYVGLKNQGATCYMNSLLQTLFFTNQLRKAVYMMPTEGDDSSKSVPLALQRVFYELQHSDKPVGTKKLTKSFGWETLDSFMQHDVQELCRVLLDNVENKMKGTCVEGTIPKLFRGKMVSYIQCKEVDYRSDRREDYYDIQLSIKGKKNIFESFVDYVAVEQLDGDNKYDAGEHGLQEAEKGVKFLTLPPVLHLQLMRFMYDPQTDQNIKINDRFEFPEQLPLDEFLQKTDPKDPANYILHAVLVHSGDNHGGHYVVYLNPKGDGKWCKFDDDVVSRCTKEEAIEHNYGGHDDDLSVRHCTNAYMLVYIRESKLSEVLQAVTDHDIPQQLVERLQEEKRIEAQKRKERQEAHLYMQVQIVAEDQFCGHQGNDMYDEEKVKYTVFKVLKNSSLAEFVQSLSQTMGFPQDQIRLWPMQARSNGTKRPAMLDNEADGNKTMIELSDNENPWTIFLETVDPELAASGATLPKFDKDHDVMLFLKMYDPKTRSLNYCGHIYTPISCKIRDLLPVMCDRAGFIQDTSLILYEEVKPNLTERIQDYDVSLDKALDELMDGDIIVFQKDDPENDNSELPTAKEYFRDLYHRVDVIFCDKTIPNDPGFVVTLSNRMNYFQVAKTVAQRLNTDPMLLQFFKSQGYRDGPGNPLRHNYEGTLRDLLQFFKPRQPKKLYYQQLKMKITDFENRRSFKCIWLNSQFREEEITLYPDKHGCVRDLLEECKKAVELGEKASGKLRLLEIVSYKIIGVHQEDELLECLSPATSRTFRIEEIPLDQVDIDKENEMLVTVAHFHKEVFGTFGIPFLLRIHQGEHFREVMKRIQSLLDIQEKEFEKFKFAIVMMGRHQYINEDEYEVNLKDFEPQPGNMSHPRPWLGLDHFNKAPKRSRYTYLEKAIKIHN
UniProt P54578: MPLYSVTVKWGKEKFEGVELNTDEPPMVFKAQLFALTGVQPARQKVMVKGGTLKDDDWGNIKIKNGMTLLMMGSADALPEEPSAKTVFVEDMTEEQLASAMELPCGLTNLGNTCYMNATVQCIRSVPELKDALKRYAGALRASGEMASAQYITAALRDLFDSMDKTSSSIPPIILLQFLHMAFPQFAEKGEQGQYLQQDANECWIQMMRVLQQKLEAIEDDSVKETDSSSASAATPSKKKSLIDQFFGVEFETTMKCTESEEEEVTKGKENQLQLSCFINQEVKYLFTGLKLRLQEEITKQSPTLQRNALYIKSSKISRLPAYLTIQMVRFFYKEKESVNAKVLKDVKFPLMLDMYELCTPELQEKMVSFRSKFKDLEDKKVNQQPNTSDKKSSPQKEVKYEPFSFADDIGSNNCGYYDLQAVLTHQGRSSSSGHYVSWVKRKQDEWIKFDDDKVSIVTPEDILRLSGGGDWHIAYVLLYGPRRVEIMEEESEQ

The values below come from article PMC9513894.

The target in experiment [1] is GST-tagged full-length USP10 (UniProt Q14694). As to the kind of experiment: co-IP; GST-tagged USP10 constructs and HA-HDAC7 co-transfected in HEK-293T cells; pull down with anti-HA or anti-GST.
Experiment [2] has as its target GST-tagged USP10 400–798 (UniProt Q14694). Described as above.
Experiment [3] has as its target Flag-USP7 (UniProt Q93009). Put plainly: co-IP; Flag-tagged USPs and HA-HDAC7 transfected into HEK-293T cells; anti-Flag beads (4 °C, 4 h; washed 4 times with NETN buffer); HA-HDAC7 detected by immunoblot. For orientation: Immunoblotting shows a protein as a band on a membrane.
Experiment [4] has as its target Flag-USP14 (UniProt P54578). Described as above.
Experiment [5] has as its target T1, Flag-USP13 (UniProt Q92995).
T1 sequence: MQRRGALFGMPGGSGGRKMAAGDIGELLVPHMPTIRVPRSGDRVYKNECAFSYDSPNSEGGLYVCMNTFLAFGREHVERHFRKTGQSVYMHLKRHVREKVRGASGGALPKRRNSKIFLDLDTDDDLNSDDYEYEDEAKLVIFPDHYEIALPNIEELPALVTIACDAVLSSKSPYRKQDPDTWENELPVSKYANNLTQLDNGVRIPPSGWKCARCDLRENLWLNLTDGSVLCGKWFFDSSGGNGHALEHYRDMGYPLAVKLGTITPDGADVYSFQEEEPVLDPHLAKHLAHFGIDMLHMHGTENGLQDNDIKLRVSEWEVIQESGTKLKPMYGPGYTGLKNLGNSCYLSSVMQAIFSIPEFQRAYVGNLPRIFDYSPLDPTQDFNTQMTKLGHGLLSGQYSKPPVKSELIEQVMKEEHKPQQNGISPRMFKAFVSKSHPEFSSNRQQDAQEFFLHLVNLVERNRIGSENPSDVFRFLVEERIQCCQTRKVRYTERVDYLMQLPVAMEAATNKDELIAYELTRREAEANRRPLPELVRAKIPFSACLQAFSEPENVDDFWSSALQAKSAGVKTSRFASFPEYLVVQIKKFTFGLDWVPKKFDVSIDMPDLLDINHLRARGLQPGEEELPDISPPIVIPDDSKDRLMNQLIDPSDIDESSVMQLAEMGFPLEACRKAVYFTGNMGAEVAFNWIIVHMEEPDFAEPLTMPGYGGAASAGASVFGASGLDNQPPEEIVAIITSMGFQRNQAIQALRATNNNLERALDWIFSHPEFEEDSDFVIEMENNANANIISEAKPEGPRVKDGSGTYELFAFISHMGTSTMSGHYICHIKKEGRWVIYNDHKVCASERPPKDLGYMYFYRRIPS
The description is as above.

B1: HA-HDAC7 (histone deacetylase 7) (enzyme, UniProt Q8WUI4 1-952)
chain: MDLRVGQRPPVEPPPEPTLLALQRPQRLHHHLFLAGLQQQRSVEPMRLSMDTPMPELQVGPQEQELRQLLHKDKSKRSAVASSVVKQKLAEVILKKQQAALERTVHPNSPGIPYRTLEPLETEGATRSMLSSFLPPVPSLPSDPPEHFPLRKTVSEPNLKLRYKPKKSLERRKNPLLRKESAPPSLRRRPAETLGDSSPSSSSTPASGCSSPNDSEHGPNPILGSEALLGQRLRLQETSVAPFALPTVSLLPAITLGLPAPARADSDRRTHPTLGPRGPILGSPHTPLFLPHGLEPEAGGTLPSRLQPILLLDPSGSHAPLLTVPGLGPLPFHFAQSLMTTERLSGSGLHWPLSRTRSEPLPPSATAPPPPGPMQPRLEQLKTHVQVIKRSAKPSEKPRLRQIPSAEDLETDGGGPGQVVDDGLEHRELGHGQPEARGPAPLQQHPQVLLWEQQRLAGRLPRGSTGDTVLLPLAQGGHRPLSRAQSSPAAPASLSAPEPASQARVLSSSETPARTLPFTTGLIYDSVMLKHQCSCGDNSRHPEHAGRIQSIWSRLQERGLRSQCECLRGRKASLEELQSVHSERHVLLYGTNPLSRLKLDNGKLAGLLAQRMFVMLPCGGVGVDTDTIWNELHSSNAARWAAGSVTDLAFKVASRELKNGFAVVRPPGHHADHSTAMGFCFFNSVAIACRQLQQQSKASKILIVDWDVHHGNGTQQTFYQDPSVLYISLHRHDDGNFFPGSGAVDEVGAGSGEGFNVNVAWAGGLDPPMGDPEYLAAFRIVVMPIAREFSPDLVLVSAGFDAAEGHPAPLGGYHVSAKCFGYMTQQLMNLAGGAVVLALEGGHDLTAICDASEACVAALLGNRVDPLSEEGWKQKPNLNAIRSLEAVIRVHSKYWGCMQRLASCPDSWVPRVPGADKEEVEAVTALASLSVGILAEDRPSEQLVEEEEPMNL
Regarding B1, the binding entry in experiment [1] is “binds”; in experiment [2] it was “binds”; in experiment [3], “no binding”; in experiment [4], “no binding”; in experiment [5] it was “no binding”.
